# Inconclusive means that the source gave no clear call. Such entries were picked first, then a sample of the others. Where a call stands in place of a potency, no number is given. For some assays here: Potencies of inconclusive entries are doubtful fits and often do not repeat. Activity calls are given as the source filed them. Unless noted, calls follow the shape of the full dose curve.
# What was measured:
# [1] = target: Progesterone receptor (Homo sapiens) (UniProt P06401); test: qHTS assay to identify small molecule agonists of the progesterone receptor (PR) signaling pathway (AID 1346784); conditions: PR-UAS-bla HEK293T, beta-lactamase FRET ratio, 16 h; activation: at 92.4 µM (top of the series) unless noted; also: nearly all actives have a fitted effect of over 30% in size; also: potency is read from the fitted curve at half-maximal effect
# Sequence of UniProt P06401 (P06401 whole entry, looked up): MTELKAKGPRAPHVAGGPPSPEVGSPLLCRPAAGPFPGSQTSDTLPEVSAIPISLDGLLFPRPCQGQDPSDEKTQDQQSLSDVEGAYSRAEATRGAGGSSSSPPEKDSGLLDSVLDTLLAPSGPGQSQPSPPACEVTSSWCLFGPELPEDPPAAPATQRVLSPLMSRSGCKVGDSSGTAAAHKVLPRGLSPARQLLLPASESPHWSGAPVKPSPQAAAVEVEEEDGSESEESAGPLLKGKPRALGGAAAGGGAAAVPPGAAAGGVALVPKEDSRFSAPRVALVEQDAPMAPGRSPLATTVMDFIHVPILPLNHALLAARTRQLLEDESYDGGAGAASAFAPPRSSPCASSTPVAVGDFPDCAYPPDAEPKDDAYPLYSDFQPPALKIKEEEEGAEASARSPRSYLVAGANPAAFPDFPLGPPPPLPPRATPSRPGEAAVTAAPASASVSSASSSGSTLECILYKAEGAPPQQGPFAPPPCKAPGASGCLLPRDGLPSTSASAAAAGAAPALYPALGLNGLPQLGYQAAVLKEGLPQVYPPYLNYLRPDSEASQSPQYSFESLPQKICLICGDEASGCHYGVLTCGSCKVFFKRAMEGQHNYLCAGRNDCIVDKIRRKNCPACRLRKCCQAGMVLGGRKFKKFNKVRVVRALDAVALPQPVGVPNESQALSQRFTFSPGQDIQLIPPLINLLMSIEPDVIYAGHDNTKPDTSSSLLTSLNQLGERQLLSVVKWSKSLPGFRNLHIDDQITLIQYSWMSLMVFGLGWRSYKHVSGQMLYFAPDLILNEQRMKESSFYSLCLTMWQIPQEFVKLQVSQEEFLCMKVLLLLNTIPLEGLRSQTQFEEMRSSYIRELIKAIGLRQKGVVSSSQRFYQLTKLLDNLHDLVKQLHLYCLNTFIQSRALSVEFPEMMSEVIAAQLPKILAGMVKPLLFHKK
# How it was run: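 Reporter assay, GripTite PR-UAS-bla HEK 293T cells: 16 hr exposure to DMSO-dissolved compounds at 37C, 5% CO2, in steroid-depleted (2% charcoal-stripped FBS) medium; beta-lactamase measured by FRET fluorescence.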
# [2] = qHTS assay to identify small molecule agonists of the progesterone receptor (PR) signaling pathway - cell viability counter screen (AID 1346799); also: nearly all actives have a fitted effect of over 45% in size; also: potency is read from the fitted curve at half-maximal effect
# How it was run: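 Multiplexed viability read: CellTiter-Glo luminescence, 30 min RT, following LiveBLAzer FRET measurement on PR-UAS-bla HEK293T cells exposed to compounds 16 hr.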
# [3] = qHTS assay to identify small molecule agonists of the estrogen receptor alpha (ER-alpha) signaling pathway in the presence of an antagonist - cell viability counter screen (AID 1259386; active = well fitted curve in the direction sought with a large enough effect in the repeat runs; inconclusive = weak or mixed curves; inactive = no such curve, though single readings can be large; an effect the other way counts as inactive or inconclusive;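 also: cells exposed to compounds for 22 h at 37 °C before the viability read; nearly all actives have a fitted effect of over 30% in size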; also: potency is read from the fitted curve at half-maximal effect)
# How it was run: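 Read-out: CellTiter-Fluor fluorescence after 1hr reagent incubation, measured in the same wells as the luciferase readout. VM7Luc4E2 cells were exposed to 15 compound concentrations with 10.0nM ICI-182,780 for 22hr at 37C.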
# [4] = qHTS assay to identify small molecule antagonists of the progesterone receptor (PR) signaling pathway - cell viability counter screen (AID 1346798; active = well fitted curve in the direction sought with a large enough effect in the repeat runs; inconclusive = weak or mixed curves; inactive = no such curve, though single readings can be large; an effect the other way counts as inactive or inconclusive; also: nearly all actives have a fitted effect of over 50% in size; also: potency is read from the fitted curve at half-maximal effect)
# How it was run: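 In the same plates used for the beta-lactamase readout, cell viability of compound- and R5020-treated PR-UAS-bla HEK293T cells (16 hr, 37C) was assessed by CellTiter-Glo luminescence.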
# [5] = target: Progesterone receptor (Homo sapiens) (UniProt P06401); test: qHTS assay to identify small molecule antagonists of the progesterone receptor (PR) signaling pathway (AID 1346795; active = well fitted inhibition curve with a large enough effect in the signal ratio in the repeat runs, not every such curve was filed as active; inconclusive = weak or mixed curves; the % refers to the signal ratio; also: potency is read from the fitted curve at half-maximal effect); conditions: PR-UAS-bla HEK293T, beta-lactamase FRET ratio, 16 h; activity change, negative = inhibition: at 92.4 µM (top of the series) unless noted
# How it was run: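 Stimulus R5020 at 1 nM final; cells HEK293T PR-UAS-bla; medium with 2% charcoal-stripped FBS; compound exposure 16 hr at 37C, 5% CO2; detection by FRET beta-lactamase substrate, 2 hr, room temperature.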
# [6] = qHTS assay to identify small molecule agonists of the TGF-beta/Smad signaling pathway - cell viability counter screen (AID 1346829; active = well fitted curve in the direction sought with a large enough effect in the repeat runs; inconclusive = weak or mixed curves; inactive = no such curve, though single readings can be large; an effect the other way counts as inactive or inconclusive; also: potency is read from the fitted curve at half-maximal effect; nearly all actives have a fitted effect of over 45% in size)
# How it was run: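 Same-well cytotoxicity: CellTiter-Glo added after the 2 hr room-temperature beta-lactamase substrate step, luminescence measured 30 min later; cells had 5 hr of compound at 37 C.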
# [7] = qHTS assay to identify small molecule agonists of the TGF-beta/Smad signaling pathway (AID 1346859; active = well fitted activation curve with a large enough effect in the signal ratio in the repeat runs, not every such curve was filed as active; inconclusive = weak or mixed curves; the % refers to the signal ratio); conditions: SBE-bla HEK293T, TGF-beta/Smad beta-lactamase reporter, 5 h; activation: at 76.8 µM (top of the series)
# How it was run: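 Screening used HEK 293T SBE-bla cells at 4,000/well. Test agents: 5 hr, 37 C. Detection: FRET substrate, 2 hr RT, then excitation 405 nm with emissions at 460 and 530 nm.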
# Tags tell the direction and shape of the fitted curve or compound fluorescence and quenching.
smiles,measurement,setting,value
CN(C)Cc1cc(CN(C)C)c(O)c(CN(C)C)c1,Potency,[1],inactive
same,Potency,[2],inactive
CCC(=O)OCCOc1ccccc1,Potency,[3],inactive
same,Potency,[4],inactive
ICCc1ccccc1,activation,[1],inconclusive: -23.1%
same,Potency,[5],active: 59.9 µM
same,Potency,[4],active: 59.9 µM
same,Potency,[2],active: 59.9 µM
C[C@]12CCC(=O)C=C1CC[C@H]1[C@@H]3CC[C@](O)(C(=O)CO)[C@@]3(C)C[C@H](O)[C@@]12F,Potency,[1],active: 1.68 µM
same,Potency,[5],inactive
same,Potency,[4],inactive
same,Potency,[2],"inconclusive: 1.5 µM [rising, full curve]"
CC12CCC(CC1=O)C2(C)C (stereo unspecified),Potency,[3],"inconclusive: 60 µM [cytotoxic, partial curve, poor fit]"
same,Potency,[4],inactive
same,Potency,[2],inactive
CCOc1nc(F)cc2nc(S(=O)(=O)Nc3c(Cl)cccc3C(=O)OC)nn12,Potency,[3],inactive
same,Potency,[2],inactive
CC(N)C(=O)OC(C)(C)Cc1ccc(Cl)cc1 (stereo unspecified),Potency,[3],"inconclusive: 13.3 µM [cytotoxic, single point]"
same,Potency,[4],"inconclusive: 23.7 µM [cytotoxic, partial curve, poor fit]"
same,Potency,[2],"inconclusive: 6.68 µM [cytotoxic, full curve, poor fit]"
Cc1ccccc1C(=O)N1CC/C(=N\OS(=O)(=O)O)c2ccc(Cl)cc21,Potency,[1],inactive
COC(Cc1ccccc1)OC,Potency,[3],inactive
same,Potency,[2],inactive
CC(C)S,Potency,[1],inactive
C/C(=N\O)[C@@H](C)NCC(C)(C)CN[C@H](C)/C(C)=N/O,Potency,[1],inactive
same,Potency,[4],"inconclusive: 21.1 µM [rising, partial curve, poor fit]"
same,Potency,[2],inactive
O=C(/C=C/c1ccc(O)c(O)c1)O[C@@H]1C[C@](O)(C(=O)O)C[C@@H](O)[C@H]1O,Potency,[3],inconclusive: 69.7 µM [cytotoxic]
same,Potency,[4],inactive
CNC(=O)N(c1ccccc1)c1ccccc1,Potency,[5],inactive
O=C1C=CC(=O)O1,"activity change, negative = inhibition",[5],inconclusive: 7.28%
C[N+](C)(C)CCOC(N)=O,Potency,[5],inactive
CC1(C)[C@H]2CC[C@]1(C)[C@H](O)C2,Potency,[5],inactive
OC[C@H]1O[C@@H](OCCc2ccc(O)cc2)[C@H](O)[C@@H](O)[C@@H]1O,Potency,[5],inactive
Cc1ccc2c(c1)OCC(=O)CO2,Potency,[5],inactive
O=C1C(CCS(=O)c2ccccc2)C(=O)N(c2ccccc2)N1c1ccccc1 (stereo unspecified),Potency,[5],inactive
CCCCCC1C(=O)CCC1CC(=O)OC (stereo unspecified),Potency,[5],"inconclusive: 30.6 µM [rising, full curve]"
CO[C@@]1(NC(=O)CSCC#N)C(=O)N2C(C(=O)O)=C(CSc3nnnn3C)CS[C@@H]21,Potency,[5],inactive
OCC(O)CS (stereo unspecified),Potency,[1],"inconclusive: 61.8 µM [activator, partial curve]"
same,Potency,[6],"inconclusive: 26.8 µM [cytotoxic, partial curve, poor fit]"
C[n+]1ccn(CCO)c1,Potency,[5],inactive
C/C(=C(\CCOP(=O)(O)O)SC(=O)c1ccccc1)N(C=O)Cc1cnc(C)nc1N,"activity change, negative = inhibition",[5],inactive: 5.03% [at 8.39 µM]
CCCCS(=O)(=O)N[C@@H](Cc1ccc(OCCCCC2CCNCC2)cc1)C(=O)O,Potency,[5],inactive
CCN(CC)C(=O)c1ccc(O)c(OC)c1,Potency,[5],inactive
C=COCCCC,"activity change, negative = inhibition",[5],inconclusive: -4.53%
COc1ccc(NS(=O)(=O)c2ccc(N)cc2)nn1,Potency,[5],inactive
CN1CCN(c2c(F)cc3c(=O)c(C(=O)O)cn(CCF)c3c2F)CC1,"activity change, negative = inhibition",[5],inconclusive: 1.68% [at 42.5 µM]
CCO[Si](CCCN=C=O)(OCC)OCC,Potency,[5],inactive
CC(C)CCCCOC(=O)c1ccccc1C(=O)OCCCCC(C)C,"activity change, negative = inhibition",[5],inconclusive: -35.2%
CC(=O)OCc1ccc2c(c1)OCO2,Potency,[5],inactive
CCc1ccc(O)c(OC)c1,"activity change, negative = inhibition",[5],inconclusive: 1.16%
CCc1cccc(C)c1N(C(=O)C(=O)O)C(C)COC (stereo unspecified),Potency,[5],inactive
N#CCC(=O)NN,Potency,[5],inactive
Cc1cc(O)c(Cl)cc1C,Potency,[5],inactive
C=C1CC[C@H]2C[C@@H]1C2(C)C,"activity change, negative = inhibition",[5],inconclusive: 1.1%
COP(=O)(O)OP(=O)(O)OC,Potency,[5],inactive
CC(C)C(=O)C(C)C,"activity change, negative = inhibition",[5],inconclusive: 0.562%
CCCC(=O)c1ccccc1,Potency,[5],inactive
CCN(CC)CCNC(=O)c1cc(Br)c(N)cc1OC,Potency,[5],inactive
COc1cc2c(Nc3ccc(Br)cc3F)ncnc2cc1OCC1CCN(C)CC1,Potency,[5],inactive
C=CCOC(=O)CCCCCC,Potency,[5],inactive
CN1CCN(CC(=O)N2c3ccccc3C(=O)Nc3cccnc32)CC1,"activity change, negative = inhibition",[5],inactive: 9.85% [at 8.39 µM]
Cc1ccc(S(=O)(=O)N=C=O)cc1,Potency,[5],inactive
O=C(O)c1ccc(O)c(O)c1,activation,[1],inconclusive: 9.58%
same,Potency,[7],inactive
COc1cccc(O)c1,Potency,[5],inactive
CCOC(=O)/C=C/c1ccccc1,Potency,[5],inactive
COC(=O)c1ccc(C)cc1C1=NC(C)(C(C)C)C(=O)N1 (stereo unspecified),Potency,[5],inactive
CCCCc1ncc(/C=C(\Cc2cccs2)C(=O)O)n1Cc1ccc(C(=O)O)cc1,Potency,[5],inactive
Cc1cccc2ccccc12,Potency,[5],inactive
O=S(=O)(O)CC(O)CCl (stereo unspecified),Potency,[5],inactive

# From PubChem BioAssay (Tox21)
